The structures appear in SMILES notation. About 230 (0.21%) of roughly 110,000 compounds showed an effect of 50% or more. The list shows a part of the results.
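Further: 30 min substrate incubation versus DMSO and 10 µM JCP410 controls.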

This test deals with DPAP1 (Plasmodium falciparum, UniProt Q8IIJ9). In words: primary screen, percent inhibition; read by cleavage of a fluorogenic dipeptide substrate; higher = more effect of the substance. Set-up: species or system P. falciparum D10 trophozoite lysates; single well.
Sequence of DPAP1 (Q8IIJ9 whole entry, looked up): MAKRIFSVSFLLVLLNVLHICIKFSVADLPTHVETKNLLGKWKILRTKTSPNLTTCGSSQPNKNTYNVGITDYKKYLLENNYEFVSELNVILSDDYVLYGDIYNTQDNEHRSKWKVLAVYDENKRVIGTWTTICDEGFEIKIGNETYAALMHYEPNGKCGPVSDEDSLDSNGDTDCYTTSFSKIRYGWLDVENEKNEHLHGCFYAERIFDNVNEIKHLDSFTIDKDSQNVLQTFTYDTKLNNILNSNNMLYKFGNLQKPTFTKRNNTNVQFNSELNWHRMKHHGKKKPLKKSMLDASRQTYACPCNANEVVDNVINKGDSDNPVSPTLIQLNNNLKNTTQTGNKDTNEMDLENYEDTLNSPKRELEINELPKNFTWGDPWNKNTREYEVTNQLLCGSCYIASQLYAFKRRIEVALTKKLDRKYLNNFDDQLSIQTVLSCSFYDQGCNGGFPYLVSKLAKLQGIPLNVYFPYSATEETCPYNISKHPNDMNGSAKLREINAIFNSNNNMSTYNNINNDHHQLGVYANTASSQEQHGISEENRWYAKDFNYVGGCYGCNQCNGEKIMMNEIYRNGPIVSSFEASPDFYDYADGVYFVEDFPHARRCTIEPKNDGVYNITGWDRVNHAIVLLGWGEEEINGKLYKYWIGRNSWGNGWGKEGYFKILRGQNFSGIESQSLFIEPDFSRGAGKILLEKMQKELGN
As for `Cc1ccc(S(=O)(=O)Nc2cccc(-c3csc(C)n3)c2)c(C)c1`, the “% Inhibition @ 10 uM” value is -6.64%.
The same measure for `COc1cccc(C(=O)Nc2cccc(Cl)c2Cl)c1`: 2.09%; for `CCOC(=O)c1c(O)nc2c(c1O)CCCC2`: -4.16%.
Turning to `Cc1ccc(-c2nnc(NCc3ccccc3)c3ccccc23)cc1S(=O)(=O)NCc1cccnc1`, the “% Inhibition @ 10 uM” value is -5.85%.
The same measure for `CCN(CC)CCCOc1cccc(C)c1`: -4.08%; for `CC(C)C1OCC2Cc3ccccc3C2O1` (stereo not shown): 4.54%; for `CC1(C)Cc2c(cnn2-c2ccc([N+](=O)[O-])cc2)-c2[nH]c3ccccc3c21`: 18.6%.
The value for `O=C([C@@H](c1ccccc1)N1Cc2ccccc2C1=O)N1CCCC1` was -4.1%.
The same measure for `O=C(O)CCC(=O)N1CCN(C(c2ccccc2)c2ccccc2)CC1`: -0.95%; for `CC(NC(=O)CSc1nc2ccccc2[nH]1)c1ccccc1` (stereo not shown): 4.1%.
Take `O=C(C1=C(O)C(=O)N(c2nc3ccccc3s2)C1c1ccccc1F)c1ccccc1` (stereo not shown): the “% Inhibition @ 10 uM” value is reported as -5.63%.
Take `Cc1onc(-c2ccccc2)c1C(=O)Nc1ccc2c(c1)OCO2`: the “% Inhibition @ 10 uM” value is given as -5.06%.
The value for `C=CCOc1ccc(Cl)cc1CNc1cccc(C(=O)O)c1` was -3.43%.
The value for `O=C(NCCc1ccccn1)c1nc(Cn2cc(Br)cn2)no1` was 2.77%.
The same measure for `Cc1nn(Cc2ccc(Cl)c(Cl)c2)c(C)c1NC(=O)c1noc2c1CCCC2`: -3.12%.
For `O=C(O)c1c(CNC2CCCc3ccccc32)c2ccccc2n1Cc1ccccc1` (stereo not shown), the “% Inhibition @ 10 uM” value is given as 1.93%.
The same measure for `COCCNC(=O)C1CCN(c2nnc(C)c3c(C)n(-c4ccccc4)nc23)CC1`: 0.931%; for `CC(C)CC(C(=O)NCC#N)c1cccc(-c2ccc(C(=O)N3CCN(CCO)CC3)cc2)c1` (stereo not shown): -8.26%; for `COc1ccc(/C=C/C(=O)NC(=O)c2ccccc2O)cc1OC`: 0.685%.
The same measure for `COc1cccc(C2C=C(c3ccc(F)cc3)Nc3ncnn32)c1OC(F)F` (stereo not shown): -3.37%; for `COc1ccc(C(=O)C2=C(O)C(=O)N(Cc3cccnc3)C2c2cccc(Oc3ccccc3)c2)cc1` (stereo not shown): 2.17%.
The same measure for `O=C(CNS(=O)(=O)c1cccc(Cl)c1)Nc1cccc(-c2nc3ccccc3s2)c1`: 5.15%; for `COc1ccc(-c2cc(C(=O)Nc3ccc(S(N)(=O)=O)cc3)c3ccccc3n2)c(OC)c1`: 6.77%; for `O=S(=O)(c1ccc2c(c1)OCCO2)N1CCC(c2nc3ccccc3s2)CC1`: 0.635%.
In the case of `COc1cccc(CN2CCN(S(=O)(=O)c3ccc(Cl)cc3)CC2)c1OC`, the “% Inhibition @ 10 uM” value was determined as 1.81%.
`COc1ccc(C2C(C(=O)Nc3cc(C)on3)c3ccccc3C(=O)N2C)cc1` (stereo not shown): the “% Inhibition @ 10 uM” value is listed as 1.16%.
The value for `Cc1ccc(CCSCC(=O)O)cn1` was -5.38%; that for `O=C(NCCCc1ccccc1)C1CCN(c2nc3ccccc3n3cccc23)CC1` was -0.205%; that for `COc1ccc(S(=O)(=O)N(C)C)cc1OC` was -1.96%.
With `CC(C)CC(C(=O)NCC#N)c1cccc(-c2cccc(OC3CCN(C(=O)OC(C)(C)C)CC3)c2)c1` (stereo not shown), the “% Inhibition @ 10 uM” value worked out at 0.079%.
The value for `CC(C)c1ccc(OCC(=O)N(Cc2cccc(F)c2)C2CCS(=O)(=O)C2)cc1` (stereo not shown) was -4.95%.
As for `CC1CCCCC1NC(=O)CCS(=O)(=O)c1cccc2nonc12` (stereo not shown), the “% Inhibition @ 10 uM” value was -1.2%.
The same measure for `CCN(CC)S(=O)(=O)c1cccc(-c2csc(C)n2)c1`: -3.65%; for `CCOC(=O)N1CCN(c2nnc(-c3ccc(C)cc3)c3ccccc23)CC1`: 0.778%; for `C=CCNC(=O)C(=O)Nc1ccc(Cl)cc1`: 1.29%.
With `CC(=O)O/N=C1\Sc2ccccc2C1=O`, the “% Inhibition @ 10 uM” value is listed as -2.49%.
For `CCO/C(O)=C1/C(C)=Nc2ncnn2C1c1ccc(C)o1` (stereo not shown), the “% Inhibition @ 10 uM” value worked out at 0.0842%.
`N#CC1=C(N)OC2=C(C(=O)CC(c3ccccc3)C2)C1c1cccnc1` (stereo not shown): the “% Inhibition @ 10 uM” value is given as -2.32%.
For the compound `CC(=O)Nc1ccc(S(=O)(=O)Nc2ccc(C)c(C)c2)cc1`, the “% Inhibition @ 10 uM” value is reported as -4.72%.
Take `COc1ccc(-c2noc(CN(C(=O)c3ccc(Br)o3)C3CCCCC3)n2)cc1`: the “% Inhibition @ 10 uM” value amounted to 0.486%.
The value for `CC1=CC2=NC(=O)/C(=C\c3cccn3CCOc3ccccc3C)C(=N)N2O1` was -9.06%.
The same measure for `CCC(C)NC(=O)NCc1cccn1Cc1ccccc1` (stereo not shown): 4.13%; for `O=C1CC(c2ccc(C(F)(F)F)cc2)c2cc3c(cc2N1)OCCO3` (stereo not shown): 2.17%; for `CC(=O)c1ccc(N2CCN(C(=O)c3ccc(Cl)c(Cl)c3)CC2)c(F)c1`: -0.279%.
The same measure for `O=C(O)C1C2CCC(O2)C1C(=O)N1CCN(c2ccccn2)CC1` (stereo not shown): 1.37%.
Consider `Cc1c(C)n(C)c2ccc(C(=O)NC(C)CCc3ccccc3)cc12` (stereo not shown), for which the “% Inhibition @ 10 uM” value was determined as 0.747%.
Take `CCOc1ccc(CCNC(=O)Cn2nc(C)n3c(cc4cc(C)ccc43)c2=O)cc1OCC`: the “% Inhibition @ 10 uM” value is recorded as -5.32%.
In the case of `O=C(NCCNC(=O)c1ccccn1)c1ccccn1`, the “% Inhibition @ 10 uM” value was 0.222%.
The value for `Nc1c(C(=O)O)sc2nc3c(cc12)CC(c1ccccc1)CC3` (stereo not shown) was -5.31%; that for `CCOC(=O)N1CCC(NC(=O)Cn2ncc3c(=O)oc4ccccc4c32)CC1` was 3.81%; that for `O=C(CN1CCCC1=O)NC1(C(F)(F)F)N=C(c2ccccc2)NC1=O` (stereo not shown) was 5.31%.
The same measure for `COc1cccc(/C=C2/S/C(=N\c3ccc(C)cc3)N(C)C2=O)c1`: -4.24%; for `O[C@H]1CC[C@H](NC2CCc3ccccc3C2)CC1` (stereo partly shown): -3.82%; for `O=C(Nc1cccc2cccnc12)c1ccc(Cl)c(Cl)c1`: -2.65%.
The same measure for `CCC(CC)C(=O)Nc1ccc(OC)cc1`: -3.25%; for `COC(=O)c1nnn(-c2ccc(F)cc2)c1O`: -2.05%.
Regarding `FC(F)(F)c1ccc(Oc2nc3ccccc3o2)cc1`, the “% Inhibition @ 10 uM” value is recorded as 0.873%.
Turning to `O=C(Cc1ccccc1)Nc1nn2c(-c3ccco3)nnc2s1`, the “% Inhibition @ 10 uM” value is given as 1.68%.
The value for `CC(NC(=O)CCCc1nnc2n(C)c(=O)c3sccc3n12)C12CC3CC(CC(C3)C1)C2` (stereo not shown) was -1.59%; that for `CC1(C23CC4CC(CC(C4)C2)C3)NC(=O)CS1` (stereo not shown) was 1.66%; that for `COc1ccccc1/C=c1\sc2nc(-c3ccncc3)nn2c1=O` was -1.52%.
The same measure for `O=C(NCCSc1ccccc1)c1cncc(Br)c1`: 0.503%; for `CCCn1c(SCc2ccccc2Cl)nc2c1c(=O)[nH]c(=O)n2C`: 4%.
The same measure for `Cc1cc(Br)ccc1OCCCN1CCN(C)CC1`: -7.46%.

Source of the values: article PMC6919601, “Identification of Plasmodium dipeptidyl aminopeptidase allosteric inhibitors by high throughput screening” (PLoS ONE, 2019).
